Assay results as given in publication PMC4336329 (PLoS ONE, 2015).
About 2,200 (0.71%) of roughly 310,000 compounds showed an effect of 50% or more. Effects have a minus sign here. This is one part of the list.

These compounds were tested against human ether-à-go-go-related gene (hERG) potassium channel (human, UniProt Q12809) (assay: primary screen, population patch clamp on CHO cells stably expressing hERG).
human ether-à-go-go-related gene (hERG) potassium channel, sequence (Q12809 whole entry, looked up): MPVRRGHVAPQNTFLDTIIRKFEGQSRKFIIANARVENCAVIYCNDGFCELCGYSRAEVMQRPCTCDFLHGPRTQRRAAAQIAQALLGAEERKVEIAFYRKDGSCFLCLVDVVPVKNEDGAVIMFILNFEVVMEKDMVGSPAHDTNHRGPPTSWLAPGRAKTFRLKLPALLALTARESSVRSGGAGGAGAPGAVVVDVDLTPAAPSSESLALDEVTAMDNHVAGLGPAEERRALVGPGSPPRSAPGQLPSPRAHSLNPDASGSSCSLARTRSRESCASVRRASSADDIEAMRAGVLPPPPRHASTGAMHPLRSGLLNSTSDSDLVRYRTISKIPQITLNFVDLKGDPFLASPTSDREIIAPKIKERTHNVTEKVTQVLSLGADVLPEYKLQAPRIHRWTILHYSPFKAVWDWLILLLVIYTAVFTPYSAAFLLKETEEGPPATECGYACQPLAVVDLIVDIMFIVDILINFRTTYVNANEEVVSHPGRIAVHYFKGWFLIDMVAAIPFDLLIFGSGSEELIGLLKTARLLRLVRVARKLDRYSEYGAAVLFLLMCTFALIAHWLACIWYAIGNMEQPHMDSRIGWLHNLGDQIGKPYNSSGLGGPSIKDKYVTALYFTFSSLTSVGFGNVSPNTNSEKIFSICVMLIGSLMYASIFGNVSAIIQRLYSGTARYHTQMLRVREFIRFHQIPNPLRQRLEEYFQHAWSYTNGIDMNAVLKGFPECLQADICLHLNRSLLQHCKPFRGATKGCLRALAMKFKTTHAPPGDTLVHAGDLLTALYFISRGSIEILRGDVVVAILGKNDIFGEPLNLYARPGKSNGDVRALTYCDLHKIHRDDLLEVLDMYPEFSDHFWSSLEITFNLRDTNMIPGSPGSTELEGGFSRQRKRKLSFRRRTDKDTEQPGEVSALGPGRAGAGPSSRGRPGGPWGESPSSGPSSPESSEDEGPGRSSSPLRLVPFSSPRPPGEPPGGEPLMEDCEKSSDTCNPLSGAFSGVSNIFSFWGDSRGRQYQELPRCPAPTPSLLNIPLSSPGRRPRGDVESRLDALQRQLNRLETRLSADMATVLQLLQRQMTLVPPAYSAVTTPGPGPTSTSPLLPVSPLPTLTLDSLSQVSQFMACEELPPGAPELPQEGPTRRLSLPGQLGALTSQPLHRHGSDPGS
For `CCN(C(C)=O)c1nc(CSc2nnc(NC(C)C)s2)cs1`, the “hERG current change (%, negative = inhibition) at 1uM” value was 0.121%.
In the case of `C[C@@]12C(=O)Nc3cc(Cl)ccc3C(=O)N1[C@H]1c3ccccc3OC[C@@H]1[C@@H]2c1ccccc1`, the “hERG current change (%, negative = inhibition) at 1uM” value is reported as 19.3%.
For `O=C(O)Cc1ccc(C(=O)c2ccc(Cl)cc2)s1`, the “hERG current change (%, negative = inhibition) at 1uM” value was 19%.
For `Cc1nn2c3cc(N4CCOCC4)ccc3nc2c2ccccc12`, the “hERG current change (%, negative = inhibition) at 1uM” value was 16.1%.
For `CCOc1ccc(Br)cc1S(=O)(=O)Nc1ccc(C(=O)OCC(=O)Nc2ccc(C#N)cc2)cc1`, the “hERG current change (%, negative = inhibition) at 1uM” value was 4.04%.
For `CN(C)CC(O)COc1ccc(-c2ccc(C#N)cc2)cc1` (stereo not drawn), the “hERG current change (%, negative = inhibition) at 1uM” value was -6.93%.
In the case of `CCOC(=O)c1csc(NC(=O)c2ccc(S(=O)(=O)N3CCCC3)cc2)n1`, the “hERG current change (%, negative = inhibition) at 1uM” value is reported as 16.5%.
For `CC(NC(=O)CN1CCN(c2cccc(Cl)c2)CC1)c1ccccc1` (stereo not drawn), the “hERG current change (%, negative = inhibition) at 1uM” value was 16.3%.
For `CCC1CCC(N2CCN(c3ccc(F)cc3)CC2)CC1` (stereo not drawn), the “hERG current change (%, negative = inhibition) at 1uM” value was -2.92%.
With `COc1cccc2cc(-c3ccnc(N)n3)oc12` the “hERG current change (%, negative = inhibition) at 1uM” value was 6.49%.
`O=C(O)c1cc(S(=O)(=O)N2CCOCC2)ccc1N1CCOCC1` was tested, and the “hERG current change (%, negative = inhibition) at 1uM” value was 9.34%.
With `CCN(CC)C(=O)Cn1c(C)c(/C=C/c2cc[n+](C)cc2)c2ccccc21.[I-]` the “hERG current change (%, negative = inhibition) at 1uM” value was 8.59%.
With `CCn1c(CNC(=O)C23CC4CC(CC(C4)C2)C3)nnc1SCC(=O)Nc1nnc(C)s1` the “hERG current change (%, negative = inhibition) at 1uM” value was 12%.
For `CCc1ccc(NC(=O)CSc2nc(N)c(NC(=O)c3ccc(F)c(F)c3)c(=O)[nH]2)cc1`, the “hERG current change (%, negative = inhibition) at 1uM” value was 18.6%.
With `O=C(O)CC1SC(=Nc2ccc(O)cc2)NC1=O` (stereo not drawn) the “hERG current change (%, negative = inhibition) at 1uM” value was 7.03%.
In the case of `COc1ccc(OCCCC(=O)Nc2cccc([N+](=O)[O-])c2C)cc1`, the “hERG current change (%, negative = inhibition) at 1uM” value is reported as 14.1%.
For `Fc1ccc(CNc2ccccn2)cc1`, the “hERG current change (%, negative = inhibition) at 1uM” value was 7.98%.
For `Cc1ccccc1NC(=O)CSc1nnc(C)c(=O)[nH]1`, the “hERG current change (%, negative = inhibition) at 1uM” value was 2.74%.
In the case of `N#CC1=C(N)NC(SCC(=O)c2ccccc2)=C(C#N)C12CCCC2`, the “hERG current change (%, negative = inhibition) at 1uM” value is reported as -0.805%.
For `Cc1cc(/C=C2\NC(=O)NC2=O)c(C)n1-c1cccnc1`, the “hERG current change (%, negative = inhibition) at 1uM” value was 11.4%.
`CCCc1ncc(C(O)c2cccc(OC)c2)n1C` (stereo not drawn) was tested, and the “hERG current change (%, negative = inhibition) at 1uM” value was 5.51%.
In the case of `O=C(NC(Nc1nc2ccc([N+](=O)[O-])cc2s1)(C(F)(F)F)C(F)(F)F)c1cccnc1`, the “hERG current change (%, negative = inhibition) at 1uM” value is reported as -4.57%.
For `COc1ccccc1S(=O)(=O)Cc1ccc(C(=O)NC(C)c2ccc3c(c2)OCCO3)o1` (stereo not drawn), the “hERG current change (%, negative = inhibition) at 1uM” value was 3.44%.
`COc1ccc(OC)c(N2C(=NC(=O)C3CCCCC3)SC3CS(=O)(=O)CC32)c1` (stereo not drawn) was tested, and the “hERG current change (%, negative = inhibition) at 1uM” value was -1.02%.
In the case of `c1cncc(CNc2c3c(nc4nnnn24)CCCC3)c1`, the “hERG current change (%, negative = inhibition) at 1uM” value is reported as 2.98%.
For `COc1cc(/C=N/NC(=O)c2sc(N)c(C#N)c2C)ccc1O`, the “hERG current change (%, negative = inhibition) at 1uM” value was -2.05%.
With `Cc1ccc2cccc(OCCCOc3ccccc3F)c2n1.O=C(O)C(=O)O` the “hERG current change (%, negative = inhibition) at 1uM” value was 21.4%.
In the case of `CCOc1cc(-c2c(C)c(CC)nc(N)c2C#N)ccc1O`, the “hERG current change (%, negative = inhibition) at 1uM” value is reported as -8.01%.
`COc1ccc(/C=C/C(=O)Nc2ccncc2)cc1OC` was tested, and the “hERG current change (%, negative = inhibition) at 1uM” value was 15.1%.
With `CNC(=S)N/N=C/c1c(Cl)cccc1Cl` the “hERG current change (%, negative = inhibition) at 1uM” value was 9.97%.
In the case of `Cc1ccc(OC(C)C(=O)N(C)c2ccccc2)c([N+](=O)[O-])n1` (stereo not drawn), the “hERG current change (%, negative = inhibition) at 1uM” value is reported as 7.8%.
In the case of `O=C(COc1ccccc1F)Nc1nnc(-c2ccncc2)s1`, the “hERG current change (%, negative = inhibition) at 1uM” value is reported as 3.53%.
With `CSc1n[nH]c(-c2sccc2OCc2ccc(C)cc2)n1` the “hERG current change (%, negative = inhibition) at 1uM” value was 7.77%.
In the case of `CO/N=C/C(c1ccc(Cl)nc1)S(=O)(=O)c1ccccc1` (stereo not drawn), the “hERG current change (%, negative = inhibition) at 1uM” value is reported as 10.2%.
With `CS(=O)(=O)NN1C(=O)c2ccccc2NC1c1ccccc1O` (stereo not drawn) the “hERG current change (%, negative = inhibition) at 1uM” value was 15.8%.
In the case of `CCN(C(=O)COC(=O)c1ccc2c(=O)n3c(nc2c1)CCC3)C1CCS(=O)(=O)C1` (stereo not drawn), the “hERG current change (%, negative = inhibition) at 1uM” value is reported as 6.99%.
With `CCN(CC)C(=O)c1ccc(NC(=O)C2=C(C)OCCS2)cc1` the “hERG current change (%, negative = inhibition) at 1uM” value was 23.5%.
With `CCCOC1CCCN(C(=O)c2ccc(OC3CCN(C(=O)COC)CC3)cc2)C1` (stereo not drawn) the “hERG current change (%, negative = inhibition) at 1uM” value was 18.4%.
With `N#CC1=C(N2CCOCC2)/C(=C\c2ccccc2)CC1` the “hERG current change (%, negative = inhibition) at 1uM” value was 5.07%.
With `O=C(NCC1CCCO1)c1ccc2c(c1)N(Cc1ccc(F)cc1Cl)C(=O)CS2` (stereo not drawn) the “hERG current change (%, negative = inhibition) at 1uM” value was 10.1%.
For `CC(C)NC(=O)c1cnc(Sc2ncc(C(F)(F)F)cc2Cl)n1C`, the “hERG current change (%, negative = inhibition) at 1uM” value was 12%.
In the case of `CS(=O)(=O)N1CCN(c2ccccc2NC(=O)c2ccc3c(c2)OCCO3)CC1`, the “hERG current change (%, negative = inhibition) at 1uM” value is reported as 9.09%.
With `O=C(NCCSCc1ccc(Cl)cc1)c1cccs1` the “hERG current change (%, negative = inhibition) at 1uM” value was 3.48%.
In the case of `Cc1ccc(-n2nc3c(N4CCC(C(=O)N5CCN(C)CC5)CC4)nnc(C)c3c2C)cc1`, the “hERG current change (%, negative = inhibition) at 1uM” value is reported as 14.2%.
`CCN(CC)S(=O)(=O)c1ccc(NC(=O)c2cc(=O)[nH]c3ccccc23)cc1` was tested, and the “hERG current change (%, negative = inhibition) at 1uM” value was 14.8%.
With `Cc1ccc([N+](=O)[O-])cc1N=C(c1ccc([N+](=O)[O-])cc1)N1CCOCC1` the “hERG current change (%, negative = inhibition) at 1uM” value was -1.45%.
In the case of `COc1ccc(-n2c(O)c(C(C)=NCc3ccc4c(c3)OCO4)c(=O)[nH]c2=O)cc1`, the “hERG current change (%, negative = inhibition) at 1uM” value is reported as 9.4%.
With `Cc1nc(CNS(=O)(=O)c2ccc(F)cc2)cs1` the “hERG current change (%, negative = inhibition) at 1uM” value was 13.2%.
With `O=C(NC(=S)N1CCc2ccccc21)c1ccco1` the “hERG current change (%, negative = inhibition) at 1uM” value was 8.55%.
In the case of `Cc1csc(SCc2nnc(-c3ccccc3Br)o2)n1`, the “hERG current change (%, negative = inhibition) at 1uM” value is reported as 2.27%.
`Cc1ccc(C)c(NC(=O)CSc2nc3ccccc3nc2N2CCOCC2)c1` was tested, and the “hERG current change (%, negative = inhibition) at 1uM” value was 19.2%.
For `CCN1CCN(CCCNC(=O)C2CCCN(c3nnc(-n4cccc4)s3)C2)CC1` (stereo not drawn), the “hERG current change (%, negative = inhibition) at 1uM” value was 10.8%.
`CC(C)(C)NC(=O)CSc1nc(O)cc(=O)n1-c1ccccc1F` was tested, and the “hERG current change (%, negative = inhibition) at 1uM” value was 3.77%.
For `COc1ccc(CN2CCCC(C(=O)c3ccc(Cl)cc3)C2)c(OC)c1` (stereo not drawn), the “hERG current change (%, negative = inhibition) at 1uM” value was -53.6%.
With `Cc1[nH]c2ccccc2c1C(=O)CN1C(=O)NC2(CCCCCC2)C1=O` the “hERG current change (%, negative = inhibition) at 1uM” value was 7.2%.
In the case of `CCOC(=O)c1c(NC(=O)C(=O)N/N=C/c2ccccc2OC)sc2c1CCCCC2`, the “hERG current change (%, negative = inhibition) at 1uM” value is reported as -7.14%.
With `Cn1c(Cc2cccc3ccccc23)nnc1SCC(=O)N1CCN(c2cccc(Cl)c2)CC1` the “hERG current change (%, negative = inhibition) at 1uM” value was 1.92%.
